Source: PubChem BioAssay AID463173 (ICCB-Longwood Screening Facility, Harvard Medical School, 2010)
Among all 52,000 compounds or so, about 4,300 (8.3%) were called active. Rule as the data show it: active = survival mostly below about 52% (no sharp cut-off); inactive = mostly above about 56%. The list shows a part of the results.

These molecules were tested on DeltatarO mutant (assay: S. aureus survival, RN4220 and DeltatarO strains – OD600, teichoic acid synthesis inhibitors, primary screen (AID 463173)). Settings: S. aureus RN4220 wild type/DeltatarO growth, OD600, 18 h, active compounds read low, screened at 18.75 µg/mL (by protocol).
For `Cc1cccc(-c2nc(SCCCOc3cc(C)c(Cl)c(C)c3)n3[nH]c(=O)cc3n2)c1`, the survival was inactive: 69%.
`CCOc1ccc(OCCOCCn2c(-c3ccc(Cl)cc3)nc3ccccc3c2=O)cc1` was tested, and the survival was active: 26%.
With `CSc1ncc(C(=O)NCc2ccc(F)cc2)c(-c2ccccc2)n1` the survival was inactive: 95%.
In the case of `CCCCN(CC)CCCNC(=O)Cn1nc(CC)n2c(cc3sccc32)c1=O`, the survival is reported as inactive: 93%.
In the case of `CCOC(=O)c1ccc(NC(=O)CCCn2nc(C)c3sc4ccccc4c3c2=O)cc1`, the survival is reported as inactive: 86%.
`COc1ccc2c(c1)c1c(c(=O)n(CCc3ccccc3)c(=O)n1Cc1cccc(C)c1)n2C` was tested, and the survival was inactive: 70%.
With `CCN1/C(=C\C(=O)C2CC2)Sc2ccccc21` the survival was inactive: 81%.
In the case of `CCOc1ccc(C2C(=O)N(C3CCCCC3)CC(=O)N2Cc2ccccc2OC)cc1OC` (stereo not given), the survival is reported as inactive: 84%.
For `CCc1ccc(-c2nc3c(c(SCc4ccccc4)n2)Cc2c(CO)cnc(C)c2O3)cc1`, the survival was inactive: 66%.
With `Cc1ccc(-c2onc(C)c2C)cc1S(=O)(=O)N1CCC(C)CC1` the survival was inactive: 71%.
In the case of `Cc1ccc(Cn2c(C(=O)Nc3ccc(Cl)cc3)cc3sccc32)cc1`, the survival is reported as inactive: 112%.
For `COc1ccccc1N(CC(=O)NC1CCCCC1)C(=O)c1csnn1`, the survival was inactive: 96%.
In the case of `COc1cc(Cl)c(C)cc1NC(=O)CNC(=O)Cn1ccc2ccccc2c1=O`, the survival is reported as inactive: 52%.
For `O=C(CN1C(=O)COc2ccc(S(=O)(=O)N3CCOCC3)cc21)NCc1ccc(Cl)cc1`, the survival was inactive: 55%.
`CCN(C(=O)CSc1nnc(-c2cc3occc3n2C)n1-c1ccccc1C)c1ccccc1` was tested, and the survival was inactive: 120%.
`Cc1nc2cc(-c3ccc(Cl)cc3)nn2c(C)c1CCC(=O)N1CCN(c2ccccc2)CC1` was tested, and the survival was inactive: 124%.
`CS(=O)(=O)c1ncc(Cl)c(C(=O)N2CCN(c3cccc(Cl)c3)CC2)n1` was tested, and the survival was active: 17%.
`Cc1oc2ncn(CC(C)C)c(=O)c2c1C(=O)NCc1cccc(Cl)c1` was tested, and the survival was inactive: 94%.
For `CCOc1ccc(Nc2sc(C(=O)c3ccc(F)cc3)c(N)c2S(=O)(=O)c2ccc(C)cc2)cc1`, the survival was active: 52%.
For `O=C(Nc1ccc(Cl)cc1)c1ccc2oc(=O)n(Cc3ccccc3)c2c1`, the survival was inactive: 67%.
`COc1ccc(C(=O)CN2CCN(S(=O)(=O)c3ccc(F)cc3)CC2)cc1` was tested, and the survival was inactive: 83%.
`COCCCNc1nc2c(c(=O)n(Cc3ccccc3)c(=O)n2C)n1C` was tested, and the survival was inactive: 64%.
For `COc1ccc(C2c3c(n(C)c4ccccc34)C(=O)N2CC(=O)Nc2c(C)cc(C)cc2C)cc1` (stereo not given), the survival was inactive: 84%.
For `CC(C)Cn1cc(NC(=O)NCc2ccc(Cl)cc2)c2ccccc2c1=O`, the survival was inactive: 86%.
`CCC(=O)N1c2ccccc2CC1C(=O)NCCCN1CCN(c2cccc(Cl)c2)CC1` (stereo not given) was tested, and the survival was inactive: 95%.
With `Cc1ccc(C)c(NC(=O)CSc2nc(=O)n(CCN3CCOCC3)c3c2CCC3)c1` the survival was inactive: 84%.
With `COc1cc2c(cc1OC)C(COc1ccc3c(C)cc(=O)oc3c1)N(C(=O)c1ccc(C)cc1)CC2` (stereo not given) the survival was inactive: 67%.
In the case of `Cc1c(C(=O)NCc2ccccc2Cl)sc2nc3n(c(=O)c12)CCCC3`, the survival is reported as inactive: 51%.
For `CCOc1ccccc1CNC(=O)C(CC)n1nc(C)c2c(C)n(-c3ccccc3)nc2c1=O` (stereo not given), the survival was inactive: 98%.
For `COc1ccc(Br)c2c1-c1nc(NC(=O)c3ccc(F)cc3)sc1C2`, the survival was inactive: 67%.
`CCOC(=O)N1CCC(NC(=O)c2ccc3c(c2)N(Cc2ccccc2)C(=O)c2ccccc2S3(=O)=O)CC1` was tested, and the survival was inactive: 52%.
`CCOc1ccc(Nc2nc(N)c(C(=O)c3ccccc3Cl)s2)cc1` was tested, and the survival was active: 0%.
`CCN(CC)S(=O)(=O)c1ccc(NC(=O)c2nn(C)c3c2CSc2ccccc2-3)cc1` was tested, and the survival was inactive: 75%.
For `O=c1cc(O)n(-c2ccccc2)c(=S)[nH]1`, the survival was inactive: 94%.
With `Fc1ccc(Nc2nc(SCc3cccc(F)c3)nc3ccccc23)cc1` the survival was inactive: 75%.
For `Cc1cccc(CC(=O)NC2CC(=O)N(c3ccc4c(c3)OCCO4)C2)c1` (stereo not given), the survival was inactive: 72%.
In the case of `Cc1ccccc1CSc1ncc(Cl)c(C(=O)NCc2ccccc2)n1`, the survival is reported as inactive: 83%.
For `CCOC(=O)c1ccc(N2C(=O)c3[nH]nc(-c4ccc(C)cc4)c3C2c2ccc(O)cc2)cc1` (stereo not given), the survival was inactive: 87%.
With `CCC(=O)N1CCc2cc(Br)cc(S(=O)(=O)CCC(=O)Nc3ccc(CC)cc3)c21` the survival was inactive: 88%.
In the case of `CC(=O)N1CCC2(CC1)OC(=O)C(C)=C2C(=O)NCc1ccccc1Cl`, the survival is reported as inactive: 89%.
In the case of `COc1ccc(-c2cn3c(n2)sc2cc(C(=O)Nc4ccc(F)cc4)ccc23)cc1`, the survival is reported as inactive: 75%.
In the case of `Cc1cc(NC(=O)c2ccc(F)cc2)ccc1-c1cc2ccccc2oc1=O`, the survival is reported as inactive: 75%.
For `Cc1ccc(Cl)cc1NC(=O)c1csnn1`, the survival was inactive: 78%.
With `CC(=O)OC1=C(C(C)=O)N(Cc2ccccc2)S(=O)(=O)c2ccccc21` the survival was inactive: 63%.
For `CC1CCN(C(=O)CCS(=O)(=O)c2cc3c(cc2Cl)NC(=O)CO3)CC1`, the survival was inactive: 105%.
For `CCOC(=O)c1nnn(CC(=O)NC(=O)Nc2ccccc2F)c1C(=O)OCC`, the survival was inactive: 78%.
For `CCCCSc1nnc2[nH]c(=O)cc(C)n12`, the survival was inactive: 99%.
With `O=C(c1cc(-c2ccc(Br)cc2)n[nH]1)N1CCN(S(=O)(=O)c2ccc(Br)s2)CC1` the survival was inactive: 93%.
With `Cc1cccn2c3c(c(=O)nc12)C(c1cccc(F)c1)CC(=O)N3` (stereo not given) the survival was inactive: 58%.
`CCC1CCCCN1Cc1c(O)ccc2c(=O)c(Oc3ccccc3Cl)c(C(F)(F)F)oc12` (stereo not given) was tested, and the survival was inactive: 61%.
For `Cc1oc2ncn(CC(C)C)c(=O)c2c1C(=O)NCCc1ccc(Cl)cc1`, the survival was inactive: 85%.
`Cc1ccc(CNC(=O)c2ccc3c(c2)CCN3S(=O)(=O)c2ccccc2)cc1` was tested, and the survival was active: 37%.
`Cc1ccc2c(CC(=O)Nc3cccc(C(F)(F)F)c3)coc2c1` was tested, and the survival was active: 1%.
In the case of `CC1(C)Cc2c(c(N3CCOCC3)nc3sc(C(=O)Nc4ccc(Cl)cc4)c(N)c23)CO1`, the survival is reported as inactive: 77%.
`Cc1cccc(NC(=O)CSc2nc(-c3cccc(C)c3)nc3c2Cc2c(CO)cnc(C)c2O3)c1` was tested, and the survival was inactive: 97%.
In the case of `CCOc1ccc(S(=O)(=O)Nc2cccc(-c3ccc(N4CCCC4)nn3)c2)cc1`, the survival is reported as inactive: 120%.
For `CCc1nc2ccc(C(=O)NCc3ccc(OC)c(OC)c3)cc2nc1CC`, the survival was inactive: 74%.
For `c1coc(CNc2ncnc3sc4c(c23)CCCC4)c1`, the survival was inactive: 107%.
For `Cc1ccc2c(c1)-c1onc(C(=O)N(C)c3cccc(C(F)(F)F)c3)c1CO2`, the survival was inactive: 108%.
In the case of `Cc1ccccc1CNC(=O)Cn1c(C)c2cnn(-c3ccccc3)c(=O)c2c1C`, the survival is reported as inactive: 102%.
`CCCCOc1ccc(C(=O)Nc2cc(-c3ccc(C)cc3)no2)cc1` was tested, and the survival was inactive: 79%.
In the case of `CCOC(=O)c1sc(N2C(=O)c3oc4ccccc4c(=O)c3C2c2ccc(C(C)(C)C)cc2)nc1C` (stereo not given), the survival is reported as active: 51%.
In the case of `CCOC(=O)COc1ccc(/C=C(\C#N)c2nc3ccc(C)cc3[nH]2)cc1OC`, the survival is reported as active: 43%.
For `Cc1cccc(NC(=O)CC2Nc3cccc4cccc(c34)NC2=O)c1` (stereo not given), the survival was inactive: 64%.
`COC(=O)c1cc2oc(C)cc2n1Cc1cc(C)ccc1C` was tested, and the survival was active: -9%.
For `Cc1ccc(C)c(NC(=O)Cn2ncc3c([nH]c4ccccc43)c2=O)c1`, the survival was inactive: 63%.
With `CCOc1ccc(NC(=O)CSc2nc(-c3cccc(Cl)c3)nc3c2Cc2c(CO)cnc(C)c2O3)cc1` the survival was inactive: 55%.
With `CCc1nc(N=C(N)N)nc2ccc(C)cc12` the survival was inactive: 58%.
`Cc1ccc(C)c(NC(=O)CSc2c(C)cnc3c2c(=O)n(C)c(=O)n3C)c1` was tested, and the survival was inactive: 79%.
With `O=C(Cn1cnc2nc3c(cc2c1=O)CCCC3)N1CCN(c2cccc(C(F)(F)F)c2)CC1` the survival was inactive: 55%.
`CCC(=O)N1c2ccccc2CC1C(=O)N1CCN(c2cccc(OC)c2)CC1` (stereo not given) was tested, and the survival was inactive: 66%.
In the case of `COc1ccc(Cn2c(C(=O)O)c(CNC3CCCC3)c3ccc(C)cc32)cc1`, the survival is reported as inactive: 79%.
With `CC(=O)c1ccc(S(=O)(=O)Nc2ccc(-c3ccc(N4CCCCC4)nn3)cc2)cc1` the survival was inactive: 81%.
In the case of `Cc1ccc(N(C)C(=O)CC(C)S(=O)(=O)c2ccc3c(c2)NC(=O)CO3)cc1` (stereo not given), the survival is reported as inactive: 120%.
`CCc1ccc(NC(=O)Cn2ccn(-c3ccc(OC)cc3)c(=O)c2=O)cc1` was tested, and the survival was inactive: 67%.
`CCCOC(=O)C1=C(C)OC23OC(N)=C(C#N)C12C(=O)c1ccccc13` (stereo not given) was tested, and the survival was inactive: 80%.
For `Cc1ccc(-c2nnc(Nc3cccc(Br)c3)c3ccccc23)cc1S(=O)(=O)N1CCCCC1`, the survival was inactive: 70%.
In the case of `CCc1ccc(CN(Cc2ccco2)C(=O)COc2ccccc2Cl)cc1`, the survival is reported as inactive: 51%.
`COCC(C)NCc1cc(F)ccc1F` (stereo not given) was tested, and the survival was inactive: 64%.
In the case of `O=C(c1ccco1)N1CCN(c2c3c(nc4cc(-c5cccc(F)c5)nn24)CCCC3)CC1`, the survival is reported as inactive: 70%.
`Cc1cccc(-n2c(=O)c3c(c4cc(C)ccc4n3C)n(C)c2=O)c1` was tested, and the survival was inactive: 67%.
For `Cc1c(Cl)cccc1NC(=O)N1CCC(CN2CCOCC2)CC1`, the survival was inactive: 77%.
In the case of `Cc1ccc(C)c(C(=O)CSc2nc(-c3ccccc3)nc3c2CCCC3)c1`, the survival is reported as active: 2%.
For `CCCCN1C(=O)CN(C2CCCCCC2)C(=O)C1c1ccc(OCC)c(OC)c1` (stereo not given), the survival was inactive: 95%.
For `COCCN(Cc1ccco1)C(=O)Cn1ncc2c([nH]c3ccccc32)c1=O`, the survival was inactive: 92%.
`O=c1c2c(nc3cc(-c4cccc(Cl)c4)[nH]n13)CCCC2` was tested, and the survival was inactive: 86%.
`Cc1cc2c(cc1S(=O)(=O)CCC(=O)N(C)C1CCCCC1)OCC(=O)N2` was tested, and the survival was inactive: 89%.
With `CN1CCc2c(sc3nc(=S)[nH]c(N)c23)C1` the survival was inactive: 92%.
In the case of `Cc1ccc(-c2nnn3c2nc(NCCc2ccccc2)c2ccccc23)cc1`, the survival is reported as inactive: 112%.
`CN(c1ncnc2c1c(-c1ccccc1)cn2-c1cccc(Cl)c1)C1CCCCC1` was tested, and the survival was inactive: 83%.
